Some of the results follow.
The sequences below were run on PfHDP1 homeodomain (GST-tagged) (assay: gcPBM binding intensity (ln(normalized median fluorescence intensity)); higher = stronger DNA binding).
Summary of the method: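 In this array assay, P. falciparum DNA-binding domains with a GST tag, expressed in E. coli, were applied for 1 h to primer-extended double-stranded 36-bp intergenic genomic probes and negative controls on an Agilent 4 × 180k array. Bound protein was visualised with Alexa488 anti-GST antibody at 488 nm. Binding intensity is the highest Masliner-normalised natural-log median intensity across replicate spots of either probe orientation.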

Sequence | gcPBM binding intensity (ln)
TTATATGGATATACAGTGCATATATACATATAAGTG | 7.89
AATATATATACTATAACACACATACACCCAAAAAAA [CACACA_site4453] | 7.26
AAAAAAAAAAGAAACACACACATATATATATAGAAT [CACACA_site1777] | 6.79
CATACCTTTTAATGTACACACATTTCTTTTTTGTTA [CACACA_site892] | 6.75
TATAAACATAATATTTAACACACATGAAGATGTATA [CACACA_site8252] | 6.29
TTAACAAAACATAAGGTGCTTAAAATTTTATATCAC [GTGCAC_site9839] | 6.36
TCTGTTAAACAAAAAAGTACTAAAATAATGTAAAAT [XGTACX_site6826] | 6.68
TATATATTGTTATATACACACATGTATTTAAAAAAT [CACACA_site5737] | 6.35
ATTATTATATATGTATGTACTTATATAATATATATA [XGTACX_site5198] | 6.36
ATATGTACAAGTGTTTATGCTGAACGGAAATCCTGT [CACACA_negctrl_site1372] | 6.18
TACCTATATAGACACACACACATATATTTATTTATA [CACACA_site6728] | 6.94
AAAAAAAAAAAAATATATATATATATATATATATAT [GTGCAC_negctrl_site212] | 9.5
AAATGTAAATTTATCCGTACATATATATATTTATAT [XGTACX_site7024] | 6.36
AAAAAAAAAAATTAAAGTACAAAAATATTAAAAATA [XGTACX_site6517] | 6.2
TCTTTTTAAGGGATTTTTTTTTTTTTTTTAAAAAGA [CACACA_negctrl_site1274] | 5.72
TTTGTATCTATATATTGTACGAATTACTTTCATTTA [XGTACX_site4785] | 6.46
AATACAATTTATAACACACACACAAGAATACCTATA [CACACA_site6705] | 6.94
TTTTTTGTATTTTTCACACACACATAAGTAAACAAT [CACACA_site1900] | 6.87
TATTATGTATGTATATGTACGTATCTTATTTTATTT [XGTACX_site5008] | 6.24
TATACATACATTAGACGTACACATTTTACCTACACC [XGTACX_site3586] | 6.92
AAATTATTATATATATGTACGTATAATGTATTTTGT [XGTACX_site2903] | 6.37
TTTTTTTTTTTTTCAAGTACATATATATATATATAA [XGTACX_site2098] | 6.54

Sequence | gcPBM binding intensity (ln)
TTTTTATATGTTAAGTGTACGTTTACATTTTATACT [XGTACX_site3485] | 6.33
TATATATATATATATACACACACACCCATATATATA [CACACA_site8812] | 9.4
ACATAAATAAATTAATGTACATATATATTTGTATAT [XGTACX_site3160] | 6.32
TGCATTTATATCTTCACACATATATATATATATATA [CACACA_site4516] | 9.51
ATATGTATATATACATGTACATATTTTTCCTTTCTT [XGTACX_site149] | 6.3
ATTAAAAATTCAATTGCACACGCACATATTTTAATA [CACACA_site8618] | 9.92
ATGTAATAAAATAATTGTACAATGTAACTAATTTTT [XGTACX_site2871] | 6.32
TTGGGTGCATATATTTGTACACATTATTTCTATTTT [XGTACX_site3688] | 10.2
TGTTGTTACAGATATACACACATATATATATTATAT [CACACA_site5342] | 6.89
TAAATTATAACGTGCACACATATTTAAAATGAAATG [CACACA_site2820] | 10
ATAAACATGGAAATGTATTAAAAGCAAGTATATAAA [XGTACX_negctrl_site516] | 6.66
AAAAAAAATTTCTTCACACATAAATAAATAAATAAA [CACACA_site4841] | 6.39
TATAAATAAAAACACACACACATATATATATATATA [CACACA_site2319] | 9.32
CCATTTTAAATATGCACACAGATGCACTAACCCATT [CACACA_site1883] | 9.9
ACTACTCCATTAAGTAGTACACAAAAAAAAAAAATA [XGTACX_site7031] | 6.31
TTACAAATGTTTTACACACACATAATTGTATCAATT [CACACA_site6147] | 6.73
TAATAAAACATATATACACACATTATAAATACATAT [CACACA_site5014] | 6.61
TAAAAAATAAAAAAAGCACACACATATATATATATA [CACACA_site8567] | 9.24
AAAATAAGAAATTGAAAAATTGAAAACAAAATTAAA [CACACA_negctrl_site1285] | 6.15
GTTTTTTTATTTCATCGTACAAAAAAGAAGGCTTTA [XGTACX_site5291] | 6.37
TAAATATGTATTCATACATGCACATATATATATATA [TGCATGCA_site584] | 9.45
TTATATATTTATTTATGTACATATTTTTTTATTATA [XGTACX_site6115] | 6.75
